# According to PubChem BioAssay AID1030 (National Center for Advancing Translational Sciences (NCATS), 2008):
# Among all 220,000 compounds or so, about 16,000 (7.3%) were called active. Inconclusive results, whose numbers are uncertain, are shown with a selection of clear calls. Calls come from the whole dose curve; as a rule, active = well fitted inhibition curve with a large enough effect (not every such curve was filed as active); inconclusive = small, poorly fitted or top-dose-only effect, or another doubt; inactive = no such curve, though single readings can be large or run the other way. Potencies of inconclusive entries are left out as doubtful fits.
# Target: Aldehyde dehydrogenase 1A1 (Homo sapiens) (UniProt P00352)
# Assay: qHTS Assay for Inhibitors of Aldehyde Dehydrogenase 1 (ALDH1A1);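 for activity, negative = inhibition: plate controls were no enzyme wells and a reference inhibitor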
# Conditions: Purified ALDH1A1, NADH fluorescence, propionaldehyde substrate; series mostly up to 75.3 µM; activity, negative = inhibition: at the top concentration
# Potency is the fitted concentration of half-maximal effect; tags give direction and shape of the fitted curve.
# UniProt P00352, sequence (P00352 whole entry, looked up): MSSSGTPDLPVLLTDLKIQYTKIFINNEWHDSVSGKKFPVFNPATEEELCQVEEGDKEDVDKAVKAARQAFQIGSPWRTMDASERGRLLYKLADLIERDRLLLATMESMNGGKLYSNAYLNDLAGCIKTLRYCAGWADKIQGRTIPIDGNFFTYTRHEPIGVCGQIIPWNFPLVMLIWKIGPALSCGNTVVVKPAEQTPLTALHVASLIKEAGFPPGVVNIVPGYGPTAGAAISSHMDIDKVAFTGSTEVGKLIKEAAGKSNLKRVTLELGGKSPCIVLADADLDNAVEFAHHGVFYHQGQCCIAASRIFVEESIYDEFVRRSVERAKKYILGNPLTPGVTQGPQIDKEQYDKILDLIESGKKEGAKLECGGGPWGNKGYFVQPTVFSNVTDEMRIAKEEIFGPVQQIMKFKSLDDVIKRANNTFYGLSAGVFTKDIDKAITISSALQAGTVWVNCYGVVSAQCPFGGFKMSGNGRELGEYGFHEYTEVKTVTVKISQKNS
SMILES,Potency,"activity, negative = inhibition"
O=C(Nc1ccc(Cl)cc1)[C@@H]1[C@@H]2C(=O)N(c3ccc(Cl)cc3Cl)C(=O)[C@@H]2[C@H]2C=CC=NN21,active: 22.4 µM,
CS(=O)(=O)Nc1ccccc1C(=O)NC1CC2CCC1C2 (configuration not stated),"inconclusive [inhibitor, partial curve]",
O=C(NCCN1CCN(c2ccccc2)CC1)c1cccn2c(=O)c3cc(Cl)ccc3nc12,"inconclusive [inhibitor, single point]",
CCCCC(CC)CNC(=O)C(=O)c1ccccc1NC(C)=O (configuration not stated),,inactive: -4.3%
COc1ccc(NC(=S)NNC(=O)c2cccnc2)cc1OC,"inconclusive [inhibitor, single point]",
CN(C)c1[nH]c(=O)c(C#N)c2c1CCN2Cc1ccccc1,"inconclusive [inhibitor, single point]",
CCOC(=O)c1cc2cc(OC)ccc2nc1C,"inconclusive [inhibitor, partial curve]",
Cc1nn(Cc2ccccc2Cl)c(C)c1C(=O)Nc1nnc(C2CC2)s1,"inconclusive [inhibitor, single point]",
COC(=O)CCC(C)C1CCC2C3CC[C@H]4CC(O)CC[C@@]4(C)C3CC(O)[C@]12C (some centres not stated),,inactive: -1.78%
CC(=O)c1ccccc1OCCn1nnc(-c2ccc(C)cc2)n1,,inactive: -2.35%
O=C(CN1CC(=O)Oc2ccccc21)NCc1ccco1,"inconclusive [inhibitor, single point]",
CCOC(=O)c1cc(-c2ccc(Cl)s2)nc2c1c(C)nn2C,"inconclusive [inhibitor, partial curve]",
COc1ccc2occ(C(C)=O)c2c1,"inconclusive [inhibitor, single point]",
O=C(Nc1ccc(S(=O)(=O)N2CCc3ccccc32)cc1)c1ccco1,active: 25.1 µM,
CCOc1ccc(NC(=O)CC2C(=O)N(c3ccccc3)C(=S)N2Cc2ccccn2)cc1 (configuration not stated),"inconclusive [inhibitor, partial curve]",
CN(C)C(=S)SCC(=O)Nc1ccc(Cl)cc1Cl,"inconclusive [inhibitor, single point]",
CCOC(=O)c1c(NC(=S)Nc2cc([N+](=O)[O-])ccc2OC)sc2c1CCCCC2,"inconclusive [inhibitor, single point]",
COCC(=O)Nc1nnc(C2CCCCC2)s1,"inconclusive [inhibitor, partial curve]",
COc1ccc(Cl)cc1NC(=O)c1ccccc1C,"inconclusive [inhibitor, single point]",
C/C(CC(=O)Nc1ccccc1)=N\NC(=O)COc1ccc(C)cc1Br,"inconclusive [inhibitor, single point]",
CC(=O)Nc1sc2c(c1C#N)CCC2,,inactive: -0.926%
CC(C)(C)NCC(O)CON=C1c2ccccc2-c2ccccc21 (configuration not stated),,inactive: -8.56%
CCOc1cc(NC(=S)Nc2ccccc2OC)c(OCC)cc1NC(=O)c1ccccc1C,"inconclusive [inhibitor, partial curve, poor fit]",
O=C1CSC(=Nc2ccccc2Cl)N1,"inconclusive [inhibitor, single point]",

SMILES,Potency,"activity, negative = inhibition"
COC(=O)c1ccc2nc(-c3ccc(S(C)(=O)=O)cc3)cn2c1,"inconclusive [inhibitor, partial curve]",
Cc1cc(C)c2nc(Cl)c(CN(Cc3ccco3)C(=O)Nc3ccccc3C)cc2c1,"inconclusive [inhibitor, single point]",
C/C(=N/NC(=O)c1cn(-c2cccc(C)n2)cn1)c1ccc(C)cc1,"inconclusive [inhibitor, single point]",
Cc1ccc(C2NC(=S)NC3=C2C(=O)CC(C)(C)C3)cc1 (configuration not stated),active: 0.794 µM,
O=C(NCCSc1ccccc1)c1cccnc1,"inconclusive [inhibitor, single point]",
COc1ccc(C(=O)CC(=O)c2ccccc2O)cc1OC,"inconclusive [inhibitor, partial curve, poor fit]",
O=C(/C=C/c1ccco1)NC(=S)NNC(=O)c1ccco1,"inconclusive [inhibitor, single point]",
Cc1ccc(-n2ncc3c(NCc4ccccc4)ncnc32)cc1,"inconclusive [inhibitor, single point]",
CCCn1c(-c2ccc(F)cc2)nc2c(N3CCN(C)CC3)nc(C)nc21,"inconclusive [inhibitor, partial curve]",
O=C(N1CCCC1)C12CC3CC(C1)CC(C(=O)N1CCCC1)(C3)C2,,inactive: -2.48%
Cn1nc(-c2ccccc2F)c2cc(C(=O)Nc3ccc4c(c3)OCCO4)sc21,"inconclusive [inhibitor, single point]",
Cc1nnc(NC2=NCCC2)s1,,inactive: 1.78%
S=C1NC2CCCCC2N1 (configuration not stated),,inactive: 16.3%
O=C(COC(=O)Cc1ccc2c(c1)OCCO2)Nc1ccc(S(=O)(=O)N2CCCC2)cc1,"inconclusive [inhibitor, single point]",
C/C(=N\Nc1ncc(Cl)cc1Cl)c1ccc(C#N)cc1,,inactive: 8.55%
CC(C)(C)NC(=O)COC(=O)c1ccccc1Nc1ccc(SC(F)F)cc1,"inconclusive [inhibitor, single point]",
NC(=O)CCC(=O)N1CCCC(C(=O)c2ccc3c4c(cccc24)CC3)C1 (configuration not stated),"inconclusive [inhibitor, single point]",
COc1ccc(C2NC(c3ccc(OC)cc3)C(c3ccccc3)C(=O)C2c2ccccc2)cc1 (configuration not stated),"inconclusive [inhibitor, partial curve]",
COc1ccc(N2C(=O)CC(N3CCN(C(=O)c4ccco4)CC3)C2=O)cc1 (configuration not stated),"inconclusive [inhibitor, single point]",
N/C(CCS(=O)(=O)c1ccc(Cl)cc1)=N\OC(=O)c1ccccc1Cl,"inconclusive [inhibitor, single point]",
CSc1cccc(NC(=S)N2CCCN(Cc3cccc(Cl)c3)C2)c1,,inactive: -15.8%
CC1=NN(C(N)=S)C(=O)C1N=Nc1cccc2ccccc12 (configuration not stated),active: 14.1 µM,
COC(=O)c1ccc(C2C(C(C)=O)=C(C)Nc3ncnn32)cc1 (configuration not stated),,inactive: 11.1%
CC(C)CC(NC(N)=O)C(=O)Nc1ccc2c(c1)OCO2 (configuration not stated),active: 17.8 µM,

SMILES,Potency,"activity, negative = inhibition"
CCCn1c(N)c(N(CCOC)C(=O)/C=C/c2cccc(Cl)c2)c(=O)[nH]c1=O,,inactive: 3.89%
COc1cc2[nH]c(=O)n(CCC(=O)N3CCN(c4cccc(C)c4C)CC3)c(=O)c2cc1OC,"inconclusive [inhibitor, single point]",
S=C(NCC1CCCO1)n1nnc2ccccc21 (configuration not stated),"inconclusive [inhibitor, single point]",
CC(C)Oc1cccc(C(=O)C2CCCN(Cc3ccc4nonc4c3)C2)c1 (configuration not stated),"inconclusive [inhibitor, single point]",
CSc1ccc(CN2C(=O)NC3(CCCCCCC3)C2=O)cc1,"inconclusive [inhibitor, single point]",
Cn1c(N)c(C(=O)COC(=O)[C@H](Cc2ccccc2)N2C(=O)c3ccccc3C2=O)c(=O)n(C)c1=O,"inconclusive [inhibitor, single point]",
COc1cc(N=c2ssnc2Cl)cc(OC)c1OC,active: 2.82 µM,
O=C(NC1CCCCC1)C(=O)N(Cc1cccnc1)C(C(=O)NCc1ccco1)c1ccccc1 (configuration not stated),,inactive: -11%
COc1cc(C)c(/C=C/C(C)=C/C=C/C(C)=C/C(=O)O)c(C)c1C,"inconclusive [inhibitor, single point]",
O=S(=O)(N/N=C/c1ccc(F)cc1)c1ccccc1,,inactive: 5.33%
Cc1ccc(C(=O)N2CCN(c3cnn(C)c(=O)c3Cl)CC2)cc1,"inconclusive [inhibitor, single point]",
COc1ccc(CSc2nc(N3CCOCC3)c3c(c2C#N)CC(C)(C)OC3)cc1,"inconclusive [inhibitor, single point]",
CCOCCCn1c(=S)[nH]c2cc(C(=O)NCCCN(CC)CC)ccc2c1=O,"inconclusive [inhibitor, single point]",
OC(COc1ccc(CNCc2cccnc2)cc1)CN1CCc2ccccc2C1 (configuration not stated),,inactive: -0.552%
O=C(C1CC1)N1CCC(c2nc(-c3ccc(S(=O)(=O)NCC4CCCO4)cc3)no2)CC1 (configuration not stated),,inactive: 3.61%
COc1ccccc1OCC(=O)Nc1ccc(S(=O)(=O)Nc2nc(C)cc(C)n2)cc1,,inactive: -13.3%
CC(C)c1ccc(NC(=O)CNCC(c2ccccc2)N(C)C)cc1 (configuration not stated),"inconclusive [inhibitor, partial curve]",
Cc1ccc(S(=O)(=O)n2ccc(=O)[nH]2)cc1,,inactive: -1.96%
Cc1c(C(=O)OCC(=O)N2CC(C)OC(C)C2)oc2ccc(Br)cc12 (configuration not stated),active: 0.178 µM,
COc1ccc(/C=C(\C#N)C(=O)OCC(=O)N2CC(C)OC(C)C2)cc1 (configuration not stated),"inconclusive [inhibitor, single point]",
Clc1ccc(CN2CCCCCCC2)cc1,"inconclusive [inhibitor, single point]",
Cc1cc(C)cc(OCc2nnc(SCC(=O)c3ccc(Br)cc3)o2)c1,"inconclusive [inhibitor, single point]",
Cc1nnc(SCCCn2c(N3CCCCC3)nc3c2c(=O)[nH]c(=O)n3C)s1,active: 14.1 µM,
Cn1c(SCC(=O)NCc2ccccc2)nc2ccccc21,"inconclusive [inhibitor, single point]",
